From article PMC11718236, “The Psu protein of phage satellite P4 inhibits transcription termination factor ρ by forced hyper-oligomerization” (Nature Communications, 2023)

Legend:
[1] = molecular target: T1, N-terminally His6-tagged Psu (wild type), co-produced with ρ in E. coli (phage satellite P4, UniProt P05460 1-190); experiment: pull-down; ρ variants and N-terminally His6-tagged Psu variants co-produced in E. coli BL21(DE3); lysates passed through Ni2+-NTA; 100 mM NaH2PO4 pH 7.0, 100 mM NaCl, 10-20 mM imidazole, elution 500 mM imidazole; Coomassie-stained gels quantified; pulled-down ρ = E/(FT+W+E) x 100; details: partners not purified
T1 construct: polarity suppression protein Psu of phage satellite P4; also called Psu^wt; His6-Psu; source: E. coli BL21(DE3), pET28b, co-produced with ρ variants, in lysate; not shown: His6, N-terminal, kept
T1 sequence: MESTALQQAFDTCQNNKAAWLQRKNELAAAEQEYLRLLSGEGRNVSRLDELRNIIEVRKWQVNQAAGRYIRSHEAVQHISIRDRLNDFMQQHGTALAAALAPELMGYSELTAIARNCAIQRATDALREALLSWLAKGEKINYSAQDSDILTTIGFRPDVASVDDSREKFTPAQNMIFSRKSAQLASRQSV

[2] = molecular target: the molecule itself; experiment: cryo-EM structure; ρ^P167L-ATPγS-Psu complexes; 10 mM TRIS-HCl pH 8.0, 120 mM KOAc, 5 mM Mg(OAc)2, 5 µM ZnCl2; 1 mM ATPγS; single-particle analysis

B1: transcription termination factor ρ Y197A, co-produced with His6-Psu in E. coli (enzyme)
chain: not shown
notes: transcription termination factor ρ (Rho) of E. coli with Y197A; source: E. coli BL21(DE3), pET21b, co-produced with His6-Psu, in lysate
- ρ pulled down (%) [1]: ~25%

B2: transcription termination factor ρ P167L variant, non-tagged, purified (enzyme)
chain: not shown
notes: transcription termination factor ρ (Rho) of E. coli with P167L; non-tagged; source: E. coli BL21 RIL, purified (heparin column, Superdex 200 SEC)
- binding result [2]: binds
